# Test results reported in the supplement of paper PMC11417369.
# Some of the results follow.
# Test system: PF3D7_0420300 AP2 domain 1 (GST-tagged)
# Assay: gcPBM binding intensity (ln(normalized median fluorescence intensity)); higher = stronger DNA binding
# In short: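 After 1 h on an Agilent 4 × 180k array of primer-extended double-stranded 36-bp intergenic genomic probes and negative controls, bound GST-tagged P. falciparum DNA-binding domains were detected with Alexa488 anti-GST antibody and scanned at 488 nm. The domains had been expressed in E. coli, and binding took place in 1× PBS with 1% milk, 0.2 mg/ml BSA, 0.5% salmon testes DNA and 0.03% Triton X-100. Binding intensity is the highest Masliner-normalised natural-log median intensity across replicate spots of either probe orientation.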
row,Sequence,gcPBM binding intensity (ln)
1,TTTTTTTTTTTTTGTGCATGTAGATTTATTGTTATA [TGCATGCA_site582],9.32
2,TTTAAATATATATTTAGTACTTATTCTTAAAATTTT [XGTACX_site624],9.02
3,GTAGAGGATTAAGAATGTACACATAAATACATATTT [XGTACX_site8874],9.2
4,AATTATACATACATATATATATTTATATATATATAT [GTGCAC_negctrl_site462],9.18
5,GTTACATACAGATACACACACATATATATATATATA [CACACA_site4652],9.81
6,AAAAAAAAATATATATAAAATTAAAAAATGTAATAT [GTGCAC_negctrl_site581],9.37
7,ATGGGTTGTTCAAATAGTACATATGTAGCCCACCAT [XGTACX_site3735],9.21
8,ATTAAAAAAAAAAGTATACACACTTCTTAATGTCAA [CACACA_site1244],9.19
9,TTATATCCCGTCCTTTATTAAAAAAATTTTTTTTCT [TGCATGCA_negctrl_site582],9.22
10,ATAATAAGGTTAAGCACACATATTACAGATATAACT [CACACA_site5791],9.49
11,AAATATTATGTGGCAAGTACATAAAGAAAATGCTTA [XGTACX_site3356],9.26
12,AATAATAATAATAATAGTACATATTATGAATATGAT [XGTACX_site5730],9.31
13,ATAAATATGGAGCACACACACATAAACATACCTATA [CACACA_site6336],10
14,GATCTACATGAAAGGACACACAAATATATATATATA [CACACA_site84],9.44
15,TTAAAAATGATTGAATGTACAGATTAATATAATTTT [XGTACX_site7394],9.16
16,TAATTTTTGAAACACACACACATATATATATATATA [CACACA_site94],9.71
17,AAGTTAACACAACAGGTGCAAGAAAAGTTTTTAATG,9.25
18,ATCAAGCACGGACACACACACACACCCAGACCCCCA [CACACA_site4360],10.1
19,TATGGTATATACAACACACACACATATGTATATATA [CACACA_site927],9.92
20,TCTTTAATATATAGTGCATGTAAATTTTACAATAAT [TGCATGCA_site242],9.13
21,AGTTAATGTTTATGTACACACGGTGGGTATATATTT [CACACA_site5785],9.59
22,TGCAACAAAATAAACACACACACACTAACACAAAAA [CACACA_site7567],10.1
23,TTTAAAAATAAAAGTACACACATAAACATATTGCAC [CACACA_site6784],9.68

row,Sequence,gcPBM binding intensity (ln)
1,TTTTCATTTGAAAGTCGTACAAGTTCGAAAAAAGGA [XGTACX_site6840],8.96
2,CTTAAAAAAACCTTAACACACATAAACTATAATTTA [CACACA_site3055],9.42
3,ATATTATATATATGTGCACACAAAAGATATATATAT [CACACA_site2125],9.7
4,ATAAGCAATAAAAAAACATGCATATTATTATCAACA [TGCATGCA_site1027],9.4
5,TTAAATAGAAATAAGACTAACAATGAACCAAAAAAA [CACACA_negctrl_site991],9.55
6,TTTTGAAAAAGTTGCACACAAAATTTAAAAAAAAAA [CACACA_site1632],9
7,ATATATATATATATATATATAATTTTTTTTGTTTTT [TGCATGCA_negctrl_site453],9.05
8,GATATCAAAAAGATGGGTACATATATTTAAGTTCAT [XGTACX_site3822],9.27
9,TATATTATTAATTAGGGTACAAAAAAAAAATTTTTT [XGTACX_site7762],8.89
10,TAGGAAAAGAAAAGCACACACATAAATAGATATATA [CACACA_site6382],9.91
11,AAAAAAAAAATTTAGGTGCATACAAATAAATTATAT [GTGCAC_site9521],9.26
12,AGCAGTCAGCAGGACAGTACACAGTAGCCAGGAAAT [XGTACX_site4877],9.23
13,TTATTCTAAAAAGGGTGTACACAAACGAATGGAAAA [XGTACX_site5662],9.43
14,ATGGCTAAAAGTTGCACACACACAAAAAAAAAAAAA [CACACA_site3289],9.69
15,TATATATTAATATGCACACACAAGAAGTAATTATAA [CACACA_site3193],9.8
16,GGCATACACGGACACACACACACACCGACATATATA [CACACA_site4493],10.3
17,ATTATATAACAAAATAGTACATATATTTATTACATC [XGTACX_site336],9.26
18,TGCACAAAATTATGCACACACCTAAAATTAATTTTT [CACACA_site5596],9.46
19,GGCAATGATTTTAGGTGTACTTAAAAATCAAATTAA [XGTACX_site8587],8.85
20,ATTCTAATCATATACACACCCATATATATATATATA [CACACA_site1774],9.53
21,TATAAAAAATAAAATACACACACATATATATATATA [CACACA_site8365],9.79
22,TAATTTCTTATGTGCTATCTTATATAGAATTAATTT [CACACA_negctrl_site1726],9.07
23,TATGTTGGTTCTTTTAGTACATAATTACTAAATGTA [XGTACX_site8616],9.28

row,Sequence,gcPBM binding intensity (ln)
1,CAAACTACAAAATTTCGTACGCATATATTTCAAGTA [XGTACX_site5154],9.23
2,AAAACATACATATATACACACATATATATATATATA [CACACA_site1852],9.57
3,CAAAAAAGTAAAACGTGTACATATATACATAAAAAT [XGTACX_site5639],9.68
4,TTTAAACGTTATATAGTGCATGTCATATTTTATTAT,9.27
5,TACGTAATAATATGCACACAAATAAACTTTATAAAT [CACACA_site3501],9.55
6,CTTTTTTATATCTCTACACACATTTATAACAATTTG [CACACA_site1398],9.7
7,TATATACATTTATATACACACCTATATTTATTTATA [CACACA_site7014],9.46
8,ATTATATATATTTATGCACACAAAATATATTATATA [CACACA_site9244],9.29
9,TTTTTTTAACGGTGTGCACACAATATACAGAAAAAA [CACACA_site1415],9.48
10,TATATTGAAAATAAAACATGCAATCACTCATACATA [TGCATGCA_site248],9.36
11,CAACAATTTCGTCATACACACATTCAGAATCTATAT [CACACA_site7171],9.57
12,ATGTACCTATTTCATACACACACACCCACAAACAAA [CACACA_site8232],10
13,TATACATTTATGTACACACACATATAGGTATATTTA [CACACA_site7408],9.61
14,AAAATATAATATATTACACACATATATTTTATAAGT [CACACA_site668],9.52
15,TTTTAGAGTGGTATATATTAATTTTTAATAAAAAAA [CACACA_negctrl_site1652],8.73
16,ATAATATATACTATATGTACATATCTTTTCCTCTTT [XGTACX_site5553],9.5
17,TTTTTCATAAAAAAATAAAAAAAATTAACATAGAAA [XGTACX_negctrl_site11],8.96
18,AATAAAAGAAGACAGAGTACACAGGTTGTATTTTCC [XGTACX_site7208],9.51
19,TGTGCATAAATTTATGCACACATAAAAAAAAAAAAA [CACACA_site8954],9.14
20,ATAGTATCTGGTAGCTGTACGAGTCGTAGAGTGTAG [XGTACX_site2030],9.19
21,TATAATAATAATTATTGTACGATTAGGTTAATTCAT [XGTACX_site1984],9.16
22,AGAAAGGTGGTATTAAAAGAATAACCTATGAATAAA [GTGCAC_negctrl_site325],9.28
23,TATGTATTTTTTAAGTGTACCTATATATATATATAT [XGTACX_site7934],9.36

row,Sequence,gcPBM binding intensity (ln)
1,TGGGAAGGGTGGGAAACTTTATCAAAAACTTATTAC [GTGCAC_negctrl_site16],9.48
2,AAAAAATTATACCTTTGTACATAAATAAAATATTAT [XGTACX_site418],9.07
3,TATGTATATATTTACGCATGCTACTCTATTTTGAGA [TGCATGCA_site990],9.1
4,ACCCATTGCTCACGTGCACACATAGAAAAATAATTC [CACACA_site4389],9.52
5,ATAACATAAGGAAATACACACATATATAAGTATATA [CACACA_site778],9.74
6,AGGTTTCATTTAGCATGTACATATTATAAAAATTGT [XGTACX_site8448],9.33
7,AAGATTACTTATATATGTACACATAATACAAATGTC [XGTACX_site520],9.14
8,TCTGTTAATATTTATACACACATATATATATATATA [CACACA_site1139],9.53
9,TTGTTCTATTTAAGTAGTACATACACACACATATAC [XGTACX_site8484],9.9
10,ACATATATATATTCTACACACTTATAATATAATACA [CACACA_site2461],9.61
11,TTTCGTTCATAAAAAAGTACATATGAGCAAAAGGTA [XGTACX_site8936],9.19
12,TATATATATATATATAGTACATATTTATATATGAAA [XGTACX_site8488],9.22
13,GAATTAAAATAATACGTACACACATGTATAATACAT [CACACA_site1004],9.57
14,ACTAAACTAATATGTACACACATATAACATTAATTT [CACACA_site7128],9.53
15,CACAATACTTTCATCACACATATATATATATATATA [CACACA_site4677],9.32
16,AAATAATATTTTTTTTTTTTTTTTTTTTTATGTTAT [CACACA_negctrl_site809],9.15
17,ATACAGTTGCATATGGTGCACGAATAATACACCTAT,9.21
18,ATAGTCTTAATGACTACACACCTAACTATGCATGCA [CACACA_site5084],9.3
19,TGGTAGTATATCATAGAAATCATTGTATAACAAATA [XGTACX_negctrl_site569],9.21
20,ATTTTTCTTTTTAATACACACAAAAGTGATACAAAC [CACACA_site3923],9.31
